# Out of some 310,000 compounds screened, about 14,000 (4.5%) showed an effect of 50% or more. Effects have a minus sign here. The list shows a part of the results.
# Biological target: human ether-à-go-go-related gene (hERG) potassium channel (human, UniProt Q12809)
# Experiment: primary screen, population patch clamp on CHO cells stably expressing hERG
# 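Further: peak tail current of the secondary pulse compared with the same well before compound.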
# Chain of human ether-à-go-go-related gene (hERG) potassium channel (Q12809 whole entry, looked up): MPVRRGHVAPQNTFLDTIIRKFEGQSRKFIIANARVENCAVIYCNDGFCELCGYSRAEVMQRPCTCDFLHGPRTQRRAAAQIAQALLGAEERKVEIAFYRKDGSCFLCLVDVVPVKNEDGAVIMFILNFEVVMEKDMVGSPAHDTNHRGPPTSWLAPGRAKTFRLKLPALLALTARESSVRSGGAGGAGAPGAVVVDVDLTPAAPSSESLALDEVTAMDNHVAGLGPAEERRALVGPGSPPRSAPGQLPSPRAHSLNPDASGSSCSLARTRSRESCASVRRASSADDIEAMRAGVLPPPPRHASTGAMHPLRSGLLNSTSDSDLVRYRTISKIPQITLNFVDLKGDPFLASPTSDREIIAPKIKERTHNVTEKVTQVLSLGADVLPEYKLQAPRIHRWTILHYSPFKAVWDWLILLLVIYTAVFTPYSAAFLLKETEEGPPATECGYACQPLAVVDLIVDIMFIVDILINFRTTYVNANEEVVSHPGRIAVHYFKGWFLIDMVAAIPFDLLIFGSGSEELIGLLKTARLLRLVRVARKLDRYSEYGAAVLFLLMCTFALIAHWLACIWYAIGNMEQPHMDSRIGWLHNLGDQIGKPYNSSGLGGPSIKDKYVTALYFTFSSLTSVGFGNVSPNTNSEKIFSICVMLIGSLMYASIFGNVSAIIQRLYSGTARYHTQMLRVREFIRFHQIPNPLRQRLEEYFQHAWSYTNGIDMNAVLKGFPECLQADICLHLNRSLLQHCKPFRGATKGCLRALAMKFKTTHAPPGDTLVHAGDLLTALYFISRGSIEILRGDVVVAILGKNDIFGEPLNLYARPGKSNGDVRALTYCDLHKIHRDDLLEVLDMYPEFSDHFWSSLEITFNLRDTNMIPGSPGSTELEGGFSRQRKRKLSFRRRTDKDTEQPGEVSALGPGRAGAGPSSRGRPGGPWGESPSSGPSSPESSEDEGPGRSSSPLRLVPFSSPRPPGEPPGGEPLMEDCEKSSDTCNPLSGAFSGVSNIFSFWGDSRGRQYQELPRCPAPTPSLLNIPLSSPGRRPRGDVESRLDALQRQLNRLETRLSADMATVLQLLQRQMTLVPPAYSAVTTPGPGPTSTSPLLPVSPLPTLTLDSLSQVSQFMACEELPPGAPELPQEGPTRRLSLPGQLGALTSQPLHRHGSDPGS
row,Compound,"hERG current change (%, negative = inhibition) at 10uM [%]"
1,Cc1ccccc1Cn1cnc2ccccc21,7.06
2,CCOc1cc(/C=C2\SC(=N)N(c3nonc3N)C2=O)ccc1OCCN1CCOCC1,-7.52
3,O=C(NNc1nc2c(F)cccc2s1)c1ccccc1,43.4
4,CC(=O)Nc1nnc(SCC(=O)N2CCc3ccccc32)s1,19.7
5,O=C(N/N=C/c1ccccc1OCc1ccccc1)c1cccnc1,-1.69
6,Cc1noc(C)c1COC(=O)c1ccc(S(=O)(=O)NCc2ccco2)cc1,-20.4
7,CCCNC(=O)NC(=O)CSc1nc(C)cs1,4.1
8,NC(=S)N=Nc1c(O)n(CCCl)c2ccc(Br)cc12,-27.4
9,O=C(COCC(=O)NCc1ccccc1)NCc1ccccc1,5.28
10,Cn1cc([N+](=O)[O-])c(C(=O)Nc2ccc(Br)cn2)n1,-10.3
11,Cc1ccc(NC(=O)COC(=O)c2cc(Cl)ccc2Cl)c(Br)c1,13.6
12,Cc1cccc(CN2C(=O)/C(=C\c3ccc(C(=O)NCCN4CCOCC4)cc3)Sc3ccccc32)c1,-9.27
13,CC(OC(=O)Cn1c(C(F)(F)F)nc2ccccc21)C(N)=O (stereo not shown),24.8
14,CCc1cccc(NC(=O)C2CCN(S(=O)(=O)c3cccs3)CC2)c1,-12.4
15,CNC(=O)c1cc2cc(OC)ccc2oc1=N,10.4
16,CCOC(=O)Cc1csc(NC(=O)CSc2ccc(Br)cc2)n1,-8.83
17,COc1cc(C(C)=O)ccc1OC(=O)c1cc2cccc(OC)c2oc1=O,2.53
18,CCOc1cc(NC(=O)c2ccccn2)c(OCC)cc1NC(=O)c1ccc(Cl)cc1,23.5
19,O=C(COc1ccccc1Cl)c1ccc[nH]1,12.4
20,[O-]c1ccccc1-[n+]1c(-c2ccccc2)cc(-c2ccccc2)cc1-c1ccccc1,-71.1

row,Compound,"hERG current change (%, negative = inhibition) at 10uM [%]"
1,COC(=O)C1=NN(c2cccc(C)c2)C2C(=O)N(c3ccccc3OC)C(=O)C12 (stereo not shown),-4.79
2,CC(C)Cn1cnc2c(=O)oc3ccccc3c21,-4.03
3,Cc1ccc(C(=O)NCC(=O)NNC(=O)CN(C)S(=O)(=O)c2ccc(Cl)cc2)s1,-12.4
4,Cc1cccc(CSc2nc3c(c(=O)[nH]2)CCC3)c1,-9.45
5,COc1ccc(S(=O)(=O)Cc2ccc(C(=O)NCC(OC)OC)o2)cc1,17.4
6,CCCc1sc(N)nc1-c1ccc(Cl)cc1,7.25
7,Cc1ccccc1Cc1c(C)nc2c(C(=O)NCc3ccc4c(c3)OCO4)cnn2c1C,-1.79
8,O=C(NCC(c1cccnc1)N1CCN(c2ccccc2)CC1)c1ccc2c(c1)OCO2 (stereo not shown),-26.5
9,O=C(NNC(=O)c1ccccc1Cl)c1ccc(-n2cncn2)c([N+](=O)[O-])c1,1.43
10,O=C(CC1C(=O)N(c2ccc(Cl)cc2)C(=S)N1CCc1ccncc1)Nc1ccc(F)cc1 (stereo not shown),-4.88
11,Cc1cc(-c2nn(-c3ccccc3F)cc2CN2CCCC(CO)C2)c(C)s1 (stereo not shown),-7.33
12,Cc1cc(CN(C)C)c(O)c(C2(C)CCCCC2)c1,5.11
13,CC(Sc1ccc(S(=O)(=O)N(C)C)cn1)C(=O)NC1CCCC1 (stereo not shown),-15.9
14,Cc1ccc(C#CC[N+]2(C)CCCCC2)cc1.[Br-],14
15,C=CCn1c(SCC(=O)NC(=O)NC)nnc1C1CCCCC1,37.5
16,CC(C)CC(NC(=O)C(NC(=O)C1OC2OC(C)(C)OC2C2OC(C)(C)OC12)C(C)C)C(=O)O (stereo not shown),30.2
17,Cc1ccc2sc(N(CCCN(C)C)C(=O)c3ccc(S(=O)(=O)N4CCCCCC4)cc3)nc2c1C.Cl,-23.4
18,O=C(CCSc1nnc(-c2ccco2)o1)Nc1ccccc1,-9.27
19,CC(C(=O)Nc1cc(Cl)cc(Cl)c1)N1CCCC1 (stereo not shown),-2.66
20,O=[N+]([O-])c1ccc(N2CCN(c3ccc(F)cc3)CC2)cc1,-17.9

row,Compound,"hERG current change (%, negative = inhibition) at 10uM [%]"
1,Cn1c(SCC(=O)N2CCCCC2)nnc1-c1ccc(S(=O)(=O)N2CCOCC2)cc1,-9.36
2,CCN(CC)CCNC(=O)Cn1cnc2sc(C)c(S(=O)(=O)N3CCOCC3)c2c1=O,14.4
3,O=C(NC(CC1CCCCC1)C(=O)O)c1ccccc1 (stereo not shown),11.9
4,Fc1ccccc1Cc1noc(CN2CCN(C/C=C/c3ccccc3)CC2)n1,-74
5,CCCn1c(CCc2ccccc2)nnc1SCC(=O)N1CCCC1,-19.7
6,COc1ccc(C(=O)C2CCCN(S(=O)(=O)C(C)C)C2)c(C)c1 (stereo not shown),3.51
7,COc1cccc(C(=O)Nc2cccc3cccnc23)c1OC,21.8
8,CCOc1ccc(C(=O)OCC(=O)N2CC(C)OC(C)C2)cc1OCC (stereo not shown),2.83
9,O=C(c1ccco1)N1CCC(c2nc(-c3ccc(F)cc3)no2)CC1,-41.8
10,O=C(OCC(=O)N1CCc2ccccc21)c1ccccc1F,5.65
11,COc1ccc(-c2csc(Nc3cccnc3)n2)cc1OC,0.265
12,COC(=O)c1ccc(N)c(N=CC2=C(O)CC(C)(C)CC2=O)c1,-2.21
13,CC(=O)Nc1nccc(-c2cc(-c3ccccc3)no2)n1,9.44
14,CN1CCN(S(=O)(=O)c2ccc3c(c2)C(C)(C)C(=O)N3C)CC1,14.3
15,Nc1nc(-c2ccc(Cl)cc2)cn1N,-2.98
16,Cn1c(C(=O)OCC(=O)NCCc2ccccc2)cc2sccc21,4.05
17,CC1=NN(c2ccccc2)C(=O)/C1=C/c1c(O)n(-c2ccc(F)cc2)[nH]c1=O,46
18,COc1ccccc1C1CCN(C(=O)c2ccc(Cl)cc2)CC1,-22.8

# From publication PMC4336329 (PLoS ONE, 2015)
